# Reference: PMC9911399, “Two distinct binding modes provide the RNA-binding protein RbFox with extraordinary sequence specificity”
# Where a chain is given by its changes, count along the chain named. The list shows a part of the results.
# B1: CUCAGUC (DNA:RNA)
# RNA: GGGAGACCGGAAUUCAGAUUGUCCCUCAGUCUUAAAUCCCGUCGUAGCCACCA
# DNA 1: CAATCTGAATTCCGGTCTCCC
# DNA 2: TGGTGGCTACGACGGGATT
# B2: CCUCGAG (DNA:RNA)
# RNA: B1 RNA with U26C, C27U, A28C, U30A, C31G
# DNA 1: CAATCTGAATTCCGGTCTCCC
# DNA 2: TGGTGGCTACGACGGGATT
# B3: UGUGAGU (DNA:RNA)
# RNA: GGGAGACCGGAAUUCAGAUUGUCCUGUGAGUUUAAAUCCCGUCGUAGCCACCA
# DNA 1: CAATCTGAATTCCGGTCTCCC
# DNA 2: TGGTGGCTACGACGGGATT
# B4: CUGUAGA (DNA:RNA)
# RNA: B1 RNA with C27G, A28U, G29A, U30G, C31A
# DNA 1: CAATCTGAATTCCGGTCTCCC
# DNA 2: TGGTGGCTACGACGGGATT
# B5: GCCCUGG (DNA:RNA)
# RNA: B1 RNA with C25G, U26C, A28C, G29U, U30G, C31G
# DNA 1: CAATCTGAATTCCGGTCTCCC
# DNA 2: TGGTGGCTACGACGGGATT
# B6: UCAGCUC (DNA:RNA)
# RNA: B1 RNA with C25U, U26C, C27A, A28G, G29C
# DNA 1: CAATCTGAATTCCGGTCTCCC
# DNA 2: TGGTGGCTACGACGGGATT
# B7: ACUUGUG (DNA:RNA)
# RNA: B1 RNA with C25A, U26C, C27U, A28U, C31G
# DNA 1: CAATCTGAATTCCGGTCTCCC
# DNA 2: TGGTGGCTACGACGGGATT
# B8: UAAGUUC (DNA:RNA)
# RNA: B1 RNA with C25U, U26A, C27A, A28G, G29U
# DNA 1: CAATCTGAATTCCGGTCTCCC
# DNA 2: TGGTGGCTACGACGGGATT
# B9: UCGCCAC (DNA:RNA)
# RNA: B1 RNA with C25U, U26C, C27G, A28C, G29C, U30A
# DNA 1: CAATCTGAATTCCGGTCTCCC
# DNA 2: TGGTGGCTACGACGGGATT
# B10: CUAUGUA (DNA:RNA)
# RNA: B1 RNA with C27A, A28U, C31A
# DNA 1: CAATCTGAATTCCGGTCTCCC
# DNA 2: TGGTGGCTACGACGGGATT
# B11: CAGGAAC (DNA:RNA)
# RNA: B1 RNA with U26A, C27G, A28G, G29A, U30A
# DNA 1: CAATCTGAATTCCGGTCTCCC
# DNA 2: TGGTGGCTACGACGGGATT
# B12: CUUGGUU (DNA:RNA)
# RNA: B1 RNA with C27U, A28G, C31U
# DNA 1: CAATCTGAATTCCGGTCTCCC
# DNA 2: TGGTGGCTACGACGGGATT
# B13: GGGGCUA (DNA:RNA)
# RNA: B3 RNA with U25G, U27G, A29C, G30U, U31A
# DNA 1: CAATCTGAATTCCGGTCTCCC
# DNA 2: TGGTGGCTACGACGGGATT
# B14: UUUCUGA (DNA:RNA)
# RNA: B3 RNA with G26U, G28C, A29U, U31A
# DNA 1: CAATCTGAATTCCGGTCTCCC
# DNA 2: TGGTGGCTACGACGGGATT
# B15: UUAAUGG (DNA:RNA)
# RNA: B1 RNA with C25U, C27A, G29U, U30G, C31G
# DNA 1: CAATCTGAATTCCGGTCTCCC
# DNA 2: TGGTGGCTACGACGGGATT
# B16: AUGAUGC (DNA:RNA)
# RNA: B1 RNA with C25A, C27G, G29U, U30G
# DNA 1: CAATCTGAATTCCGGTCTCCC
# DNA 2: TGGTGGCTACGACGGGATT
# B17: GAGCCGU (DNA:RNA)
# RNA: B3 RNA with U25G, G26A, U27G, G28C, A29C
# DNA 1: CAATCTGAATTCCGGTCTCCC
# DNA 2: TGGTGGCTACGACGGGATT
# B18: AACCUUC (DNA:RNA)
# RNA: B1 RNA with C25A, U26A, A28C, G29U
# DNA 1: CAATCTGAATTCCGGTCTCCC
# DNA 2: TGGTGGCTACGACGGGATT
# B19: UUUCCGC (DNA:RNA)
# RNA: B3 RNA with G26U, G28C, A29C, U31C
# DNA 1: CAATCTGAATTCCGGTCTCCC
# DNA 2: TGGTGGCTACGACGGGATT
# B20: CUCCAUC (DNA:RNA)
# RNA: B1 RNA with A28C, G29A
# DNA 1: CAATCTGAATTCCGGTCTCCC
# DNA 2: TGGTGGCTACGACGGGATT
# Molecular target: T1, RBFOX1 RRM (Homo sapiens, UniProt Q9NWB1 109-208)
# T1 sequence: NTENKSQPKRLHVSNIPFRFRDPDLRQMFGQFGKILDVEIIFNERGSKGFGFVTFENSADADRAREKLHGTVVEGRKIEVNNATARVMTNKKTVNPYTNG
# Assay: EMSA; HiTS-Eq, 1 nM pool, 10 min; buffer printed only for the single-RNA assays: 10 mM Tris pH 7.5, 150 mM NaCl, 3.4 mM EDTA, 0.001% NP-40, 30 C
# Conditions: tags: His6 N-terminal (pET28a); label: 5' 32P
# In short: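 Purified RbFox RRM, wild type or mutant, was incubated for 10 min in 50 µL with 1 nM of a 5′-radiolabelled RNA pool carrying 7 randomized nucleotides, whose flanks were annealed to DNA oligonucleotides, over a series of increasing protein concentrations. Unbound RNA was resolved on 8% native PAGE, cut out, reverse-transcribed, barcoded by PCR and sequenced on an Illumina HiSeq 2500. Relative association constants were derived from changes in read counts for each RNA species versus the control reaction and normalised to the cognate motif.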
row,Binder,binding signal
1,B1,0.00839 KA relative to UGCAUGU
2,B2,0.00815 KA relative to UGCAUGU
3,B3,0.0271 KA relative to UGCAUGU
4,B4,0.0127 KA relative to UGCAUGU
5,B5,0.0197 KA relative to UGCAUGU
6,B6,0.00672 KA relative to UGCAUGU
7,B7,0.0124 KA relative to UGCAUGU
8,B8,0.016 KA relative to UGCAUGU
9,B9,0.00696 KA relative to UGCAUGU
10,B10,0.00654 KA relative to UGCAUGU
11,B11,0.0173 KA relative to UGCAUGU
12,B12,0.0191 KA relative to UGCAUGU
13,B13,0.0305 KA relative to UGCAUGU
14,B14,0.0328 KA relative to UGCAUGU
15,B15,0.00567 KA relative to UGCAUGU
16,B16,0.0159 KA relative to UGCAUGU
17,B17,0.00892 KA relative to UGCAUGU
18,B18,0.00492 KA relative to UGCAUGU
19,B19,0.00981 KA relative to UGCAUGU
20,B20,0.00555 KA relative to UGCAUGU
